From PubChem BioAssay AID1452 (National Center for Advancing Translational Sciences (NCATS), 2008)
Screen size: about 150,000 compounds; about 190 (0.13%) were called active. The shares of active, inactive and inconclusive entries below differ from those in the screen. The call rests on the fitted dose curve; in most records, active means well fitted inhibition curve with a large enough effect; inconclusive means small, poorly fitted or top-dose-only effect; inactive means flat fitted curve, though single readings scatter. Where the call is inconclusive, the potency comes from a doubtful curve fit.

Molecular target: Polyunsaturated fatty acid lipoxygenase ALOX12 (Homo sapiens) (UniProt P18054)
Assay: qHTS Assay for Inhibitors of 12-hLO (12-human lipoxygenase); further: nearly all actives have a fitted effect of over 55% in size
Conditions: purified 12-hLO, xylenol orange hydroperoxide absorbance; series mostly up to 57.1 µM
Method in brief: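 Lipoxygenase turnover measured by absorbance at 573 and 405 nm after Fe-XO development. Human 12hLO 150 nM, arachidonate 40 uM, pH 7.0 Hepes buffer with detergent; 15 min compound preincubation, 30 min reaction.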
On the % scale 0 is the no-effect control and ±100 the full control effect; potency means the concentration at half of the fitted maximal effect; tags describe the fitted curve by direction and shape.

Chain of UniProt P18054 (P18054 whole entry, looked up): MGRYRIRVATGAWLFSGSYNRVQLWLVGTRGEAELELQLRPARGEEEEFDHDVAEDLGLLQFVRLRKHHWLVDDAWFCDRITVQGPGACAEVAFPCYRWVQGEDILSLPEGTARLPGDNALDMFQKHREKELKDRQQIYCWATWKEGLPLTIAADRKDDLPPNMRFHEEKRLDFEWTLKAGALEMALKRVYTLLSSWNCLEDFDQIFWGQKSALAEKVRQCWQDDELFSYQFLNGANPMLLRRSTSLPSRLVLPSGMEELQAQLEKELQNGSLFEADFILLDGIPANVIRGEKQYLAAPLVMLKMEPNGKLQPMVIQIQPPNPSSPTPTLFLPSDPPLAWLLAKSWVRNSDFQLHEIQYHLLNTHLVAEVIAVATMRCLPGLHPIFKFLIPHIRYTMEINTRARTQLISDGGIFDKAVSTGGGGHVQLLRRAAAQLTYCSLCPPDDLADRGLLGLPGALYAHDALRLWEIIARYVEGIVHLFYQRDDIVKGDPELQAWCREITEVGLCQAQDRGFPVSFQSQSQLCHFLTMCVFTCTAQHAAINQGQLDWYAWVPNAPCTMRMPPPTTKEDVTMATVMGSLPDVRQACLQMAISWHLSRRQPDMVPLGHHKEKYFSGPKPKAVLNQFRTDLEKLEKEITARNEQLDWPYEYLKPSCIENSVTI

Potency, inconclusive:
Cc1ccc([N+](=O)[O-])cc1NC(=S)NC(=O)C(C)(C)C 8.91 µM [inhibitor, partial curve]
O=C1SC(SCc2ccccc2)=N/C1=C\c1ccco1 28.2 µM [inhibitor, single point]
COCCNC(=O)NC1(C(F)(F)F)Oc2ccc(Cl)cc2O1 (stereo unspecified) 0.0355 µM [inhibitor, full curve, poor fit]
COc1cc2c(C=O)c3c4c(cc(OC)c(OC)c4c2cc1OC)CCN3C 35.5 µM [inhibitor, single point]
S=C(NC1CCCCC1)N(CCc1nc2ccccc2[nH]1)C1CCCC1 25.1 µM [inhibitor, single point]
C(=Nc1ccc(Nc2ccccc2)cc1)c1ccc2ccccc2c1 7.08 µM [inhibitor, partial curve]
OCCCc1nc2n(n1)C(c1cccs1)C=C(c1ccc(Br)cc1)N2 (stereo unspecified) 14.1 µM [inhibitor, partial curve]
COc1cc(Cl)c(C)cc1NC(=O)COC(=O)C(NS(=O)(=O)c1ccc(Cl)cc1)C(C)O (stereo unspecified) 35.5 µM [inhibitor, single point]
O=C(c1ccc(Oc2ccccc2)cc1)c1nc2c(n1O)CCCC2 2.82 µM [inhibitor, partial curve]
Cc1ccc2nc(N3C(=O)C(O)=C(C(=O)c4cc5ccccc5o4)C3c3cccs3)sc2c1 (stereo unspecified) 31.6 µM [inhibitor, single point]
Cc1cc(C)cc(NC(=S)NCc2ccc3[nH]c4c(c3c2)CCCC4)c1 31.6 µM [inhibitor, single point]
Cc1cccc(CSCCNC(=S)Nc2ccccc2)c1 35.5 µM [inhibitor, single point]
COc1cccc(OC)c1C(=O)NC(=S)N1CCN(c2ccc(C(F)(F)F)cc2[N+](=O)[O-])CC1 17.8 µM [inhibitor, partial curve]
O=[N+]([O-])c1ccc(S(=O)(=O)Nc2ccc(-c3csc(-c4ccccc4)n3)cc2)cc1 5.62 µM [inhibitor, partial curve]
Cc1cccc(/C=C/C(=O)c2cc(Br)ccc(=O)c2O)c1 2.51 µM [inhibitor, partial curve]
S=C(NCCc1ccccc1)N/N=C/c1ccccc1Cl 22.4 µM [inhibitor, single point]
Oc1c(Cl)cc(Cl)c2cccnc12 1 µM [inhibitor, full curve]
COc1ccc(/C(C)=N/NC(=S)NCc2ccco2)cc1 25.1 µM [inhibitor, single point]
O=C1CS/C(=C\S(=O)(=O)c2ccc(Cl)cc2)N1 14.1 µM [inhibitor, partial curve]
CC1CCc2nc(NC(=O)C3COc4ccccc4O3)sc2C1 (stereo unspecified) 39.8 µM [inhibitor, single point]
Cc1[nH]n(-c2ccccc2)c(=S)c1C=NCCCN=Cc1c(C)[nH]n(-c2ccccc2)c1=S 7.94 µM [inhibitor, full curve]
O=C(Nc1ccc(Cl)cc1)[C@@H]1[C@@H]2C(=O)N(c3ccc(Cl)cc3)C(=O)[C@@H]2[C@H]2C=CC=NN21 12.6 µM [inhibitor, partial curve]
N#C/C(=C/c1ccc(N2CCCCCC2)o1)c1cccc(F)c1 8.91 µM [inhibitor, partial curve]
O=C(c1ccc(F)cc1)C1CCN(CCn2c(=O)[nH]c3ccccc3c2=O)CC1 6.31 µM [inhibitor, single point]
COc1ccc(N(C)C(=O)c2ccc3nc(-c4ccccc4)c(-c4ccccc4)nc3c2)cc1 20 µM [inhibitor, partial curve]
C/C(=N\NC(=S)Nc1ccc(C)c(C)c1)c1ccc(N2CCOCC2)cc1 11.2 µM [inhibitor, partial curve]
CNC(=S)N/N=C/c1cn(Cc2ccc(F)cc2)c2ccccc12 25.1 µM [inhibitor, single point]
N#C/C(=N\Nc1cc(Cl)cc(Cl)c1)c1nnc2n1CCCCC2 0.224 µM [inhibitor, full curve]
CC(C)CNC(=S)NC(=O)c1ccc([N+](=O)[O-])cc1 28.2 µM [inhibitor, partial curve]
CCNC(=O)N1c2ccc(OC)cc2C(C)=CC1(C)C 12.6 µM [inhibitor, partial curve]
COc1ccc(-c2[nH]ncc2-c2ccc3c(c2)OCCO3)c(O)c1 20 µM [inhibitor, partial curve]
C=CCn1cc(-c2ccc(Cl)cc2)cc(C#N)c1=O 3.98 µM [inhibitor, single point]
COc1ccc(C(=O)COC(=O)CN2CC(=O)Oc3ccccc32)cc1Br 25.1 µM [inhibitor, single point]
COc1cccc(/C=N/NC(N)=S)c1OCc1cccc(Cl)c1 22.4 µM [inhibitor, single point]
C=CCc1cccc(/C=N/NC(=O)CNc2ccccc2)c1O 1.41 µM [inhibitor, full curve]
CCCCCCn1c(-c2ccco2)nc2oc3cc(OC)ccc3c(=O)c2c1=O 1 µM [inhibitor, full curve, poor fit]
N#C/C(=C\c1ccc(O)c(O)c1)C(=O)NCCCCc1ccccc1 22.4 µM [inhibitor, partial curve, poor fit]
CNC(=S)N/N=C/c1cc(Br)cc(Br)c1O 0.398 µM [inhibitor, full curve]
CCOC(=O)c1c(NC(=O)C2=C(C)NC(=S)NC2c2ccc(C)cc2)sc(C)c1C (stereo unspecified) 6.31 µM [inhibitor, partial curve]
CC(=O)c1cccc(NC(=S)NC(=O)c2ccccc2)c1 12.6 µM [inhibitor, partial curve]
CC1CCC/C(=C\Nc2ccc3c(c2)OCO3)C1=O (stereo unspecified) 11.2 µM [inhibitor, partial curve]
O=C(O)Cn1cccc1C(=O)c1ccccc1 14.1 µM [inhibitor, partial curve]
CC(NC(=S)Nc1ccccc1OC(F)F)C(C)(C)C (stereo unspecified) 20 µM [inhibitor, partial curve]
Cc1ccc(-c2ccc(CCC(=O)O)n2NC(=O)c2cccs2)cc1 11.2 µM [inhibitor, partial curve]
O=[N+]([O-])c1ccc(NNC(=S)Nc2ccccc2)cc1 22.4 µM [inhibitor, single point]
Nc1nc2c(s1)CCc1c-2cnn1-c1ccccc1 15.8 µM [inhibitor, partial curve]

Potency, inactive:
O=C(CCCCn1c(=S)[nH]c2ccsc2c1=O)NCc1ccco1
O=C1CN(C(=O)c2ccccc2F)c2ccccc2N1
COc1ccc(CN2CC(C(=O)NCCc3ccccc3)CC2=O)cc1 (stereo unspecified)
c1ccc(-c2ccc(C(c3ccccc3)n3ccnc3)cc2)cc1 (stereo unspecified)
N#CC(C#N)=NNc1ccc(S(=O)(=O)N2CCCCC2)cc1
Cc1cc(=O)[nH]c(SCC(=O)c2ccccc2)c1C#N
Cn1c(=O)c2c(ncn2CC(=O)Nc2nc3ccc(F)cc3s2)n(C)c1=O
CC1CCN(C(=O)CCc2ccc(Oc3cc([N+](=O)[O-])cc([N+](=O)[O-])c3)cc2)CC1
CC/C(=N/Nc1cccc(Cl)c1)c1cnnc(SC)n1
Cc1noc(NS(=O)(=O)c2cccc3c(N(C)C)cccc23)c1C
COc1ccc(-c2csc(Cc3nnc4n3CCCCC4)n2)cc1
O=C(CCCN1C(=O)/C(=C/c2ccccc2Cl)SC1=S)Nc1ccccn1
O=c1c2oc3ccccc3c2[nH]c(=S)n1-c1ccccc1
CCOc1ccc(N(CC(=O)Nc2cccc(Cl)c2)S(=O)(=O)c2c(C)noc2C)cc1
CCc1ccc(C(=O)NCC2COc3ccccc3O2)o1 (stereo unspecified)
COc1cc(NC(=O)c2ccccc2Cl)c(OC)cc1NC(=O)CN1CCOCC1
CCNS(=O)(=O)c1ccc(C)cc1
COC(=O)CCC(=O)NC(=S)Nc1sc(C)c(C)c1C(N)=O
O=C(Oc1ccc2ccccc2c1Cl)N1CCCC1
COCCN=C1OC(=O)N2C(=O)C3=C4C(C[C@H]5C(=O)N(CC(=O)OC)C(=O)[C@H]5[C@H]4[C@@]12Cc1ccccc1)[C@H]1C(=O)N(CC(=O)OC)C(=O)[C@H]1[C@H]3C (stereo partly specified)
CCOC(=O)N1CCc2c(sc(NC(=O)c3ccc(Cl)s3)c2C(N)=O)C1
CS(=O)(=O)Nc1ccc(C(=O)N2CCCCC2)cc1

Activity change, negative = inhibition, inactive:
CC(C)(C)C(=O)[C@H]([C@@H](c1ccccc1)N1CCOCC1)N1CCOCC1 2.05% [at 11.4 µM]
Cc1ccc(N(Cc2ccccc2)Cc2ccccc2)cc1 4.36% [at 11.4 µM]
COc1cc(OC)c2c(c1)OC(=O)CC2c1cc(OC)c(OC)c(OC)c1 (stereo unspecified) -5.58% [at 0.00818 µM]
